Measured values published in PubChem BioAssay AID686979 (National Center for Advancing Translational Sciences (NCATS), 2013).
In all, about 420,000 compounds went through this assay and about 50,000 (12%) were called active. The inconclusive results got no clear call from the source; some entries with a clear call stand among them for comparison. Calls come from the whole dose curve; as a rule, active = well fitted inhibition curve with a large enough effect; inconclusive = small, poorly fitted or top-dose-only effect; inactive = flat fitted curve, though single readings scatter. No potency is given beside an inconclusive call; the fits are too rough.

Experiment: qHTS for Inhibitors of human tyrosyl-DNA phosphodiesterase 1 (TDP1): qHTS in cells in presence of CPT; note: nearly all actives have a fitted effect of over 55% in size
Settings: chicken DT40 Tdp1-/-;hTDP1 cells + 20 nM CPT, ATP luminescence, 48 h; activity change, negative = growth inhibition: at 46.2 µM (top of the series) unless noted
How it was run: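 Cell growth measured by CellTiter-Glo luminescence after a minimum 48 h, 37 C compound exposure with 20 nM CPT in Tdp1-knockout DT40 cells stably expressing hTDP1, seeded 400/well; qHTS titration format.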
% is set by controls: 0 for no effect and ±100 for the full control effect; potency is the fitted concentration of half-maximal effect; tags give direction and shape of the fitted curve.

| SMILES | Potency | activity change, negative = growth inhibition |
| --- | --- | --- |
| O=C(Nc1ccc(NC(=O)C2CCCCC2)nc1)c1cccs1 | inconclusive [inhibitor, single point] |  |
| O=C(Nc1ccc(NC(=O)c2ccco2)c(Cl)c1)c1ccccc1 | inconclusive [inhibitor, single point] |  |
| CC1CN(C(=O)Nc2ccc(C(=O)NCc3cccc(F)c3)cc2)c2ccccc2S1 (centres undefined) | inconclusive [inhibitor, single point] |  |
| COc1ccc(C(CNC(=O)c2cc(S(=O)(=O)Nc3cccc(C)c3)ccc2C)N2CCOCC2)cc1 (centres undefined) | inconclusive [inhibitor, single point] |  |
| CC1(C)Cc2cccc(OCC(=O)N3CCN(c4cccc(Cl)c4)CC3)c2O1 | inconclusive [inhibitor, partial curve, poor fit] |  |
| Cn1cc(Cl)c(C(=O)OCC(=O)Nc2nc(-c3ccc(Br)cc3)cs2)n1 | inconclusive [inhibitor, single point] |  |
| CC(=O)N1CCc2c(sc(NC(=O)c3ccc([N+](=O)[O-])o3)c2C(N)=O)C1 | active: 3.66 µM |  |
| O=C(NNS(=O)(=O)c1ccc(F)cc1)C1CCN(Cc2cccc(F)c2)CC1 |  | inactive: -1.62% |
| CCC(=O)N1CCCC(C)(C(=O)Nc2ccc(C)c(C)c2)C1 (centres undefined) |  | inactive: -20% |
| O=C(/C=C/c1ccc(OCCCF)cc1)Nc1ccnc(-c2ccncc2)n1 | inconclusive [inhibitor, partial curve, poor fit] |  |
| O=C(Nc1nnc(-c2ccccc2)s1)C1CCCN(C(=O)c2ccoc2)C1 (centres undefined) | inconclusive [inhibitor, single point] |  |
| COc1cc2cncc(Cc3ccccc3)c2cc1O | inconclusive [inhibitor, single point] |  |
| CCCN(CCC)Cc1cc(=O)oc2cc(C)c(Cl)cc12 | inconclusive [inhibitor, partial curve] |  |
| CCOc1cc(C)ccc1OCc1nnc(SCC(=O)Nc2cccc(C(=O)O)c2)n1-c1ccccc1 |  | inactive: -7.05% |
| CC(=NNC(=S)N1CC2CCC(CC2)C1)c1ccccn1 | active: 0.0082 µM |  |
| COc1cccc(NC(=O)C2(C)CCN2Cc2cccc(OC)c2F)c1 (centres undefined) | inconclusive [inhibitor, single point] |  |
| CC(NC(=O)CN(c1ccc(Br)cc1)S(C)(=O)=O)c1ccccc1 (centres undefined) |  | inactive: -6.42% |
| O=c1c(S(=O)(=O)c2ccccc2)cn(Cc2ccccc2)c2cc(N3CCOCC3)c(F)cc12 | active: 20.6 µM |  |
| O=C(/C=C/c1ccco1)Nc1cccc(-c2nc3ccccc3[nH]2)c1 | inconclusive [inhibitor, partial curve] |  |
